In PubChem BioAssay AID504845 (National Center for Advancing Translational Sciences (NCATS), 2011):
Screen size: about 390,000 compounds; about 150 (0.038%) were called active. The inconclusive results got no clear call from the source; some entries with a clear call stand among them for comparison. The call rests on the fitted dose curve; in most records, active means well fitted inhibition curve with a large enough effect; inconclusive means small, poorly fitted or top-dose-only effect; inactive means no such curve, though single readings can be large or run the other way. Where the call is inconclusive, the potency comes from a doubtful curve fit.

The compounds below were run against Regulator of G-protein signaling 4 (Homo sapiens) (UniProt P49798) (assay: Inhibitors of Regulator of G Protein Signaling (RGS) 4: qHTS). Details: Transcreener GDP fluorescence polarization, RGS4-accelerated GTP hydrolysis; series mostly up to 114 µM; activity change, negative = inhibition: at the top concentration.
Method in brief: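 MLSMR compounds (23 nl, pin-transferred) preincubated 10 min at room temperature with a 500nM (2x) first reagent, then RGS4 at 900nM (2x) plus Transcreener GDP mix added; fluorescence polarization (620/688 nm) read before and after 90 min at 30 °C.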
Further: nearly all actives have a fitted effect of over 75% in size.
On the % scale 0 is the no-effect control and ±100 the full control effect; potency means the concentration at half of the fitted maximal effect; tags describe the fitted curve by direction and shape.

UniProt P49798, sequence (P49798 whole entry, looked up): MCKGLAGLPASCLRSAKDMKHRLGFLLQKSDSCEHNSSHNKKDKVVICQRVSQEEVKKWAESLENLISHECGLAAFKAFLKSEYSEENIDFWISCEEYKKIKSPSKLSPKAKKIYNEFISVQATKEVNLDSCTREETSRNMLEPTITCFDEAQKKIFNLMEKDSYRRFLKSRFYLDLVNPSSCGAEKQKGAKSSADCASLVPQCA

Structure (SMILES)	activity change, negative = inhibition	Potency
CCOC(=O)C1=C(C)N=C2SC(C(=O)OC)=CC(=O)N2C1c1cccc(OC)c1 (centres undefined)	inactive: -36.2%	
O=C(Nc1ccc2nc(-c3ccc4nc[nH]c4c3)[nH]c2c1)c1cccs1	inactive: -130% [at 56.9 µM]	
O=C(c1ccco1)n1nc(-c2ccccc2)nc1NCc1ccco1		inconclusive: 79.4 µM [inhibitor, single point]
O=C1c2cccc3c(N4CCCCC4)ccc(c23)C(=O)N1c1ccc(O)cc1	inactive: -36.6%	
COc1cccc(-n2nc(C#N)c(Cl)cc2=O)c1		inconclusive: 56.2 µM [inhibitor, partial curve, poor fit]
CCCCN1C(=O)C(O)=C(C(C)=O)C1c1ccccc1 (centres undefined)		inconclusive: 70.8 µM [inhibitor, single point]
COc1ccc(C(=O)Nc2ccccc2C(=O)N2CCOCC2)cc1Br		inconclusive: 89.1 µM [inhibitor, single point]
Cc1nn2c(c1-c1ccccc1)N=C(c1ccco1)CC2c1ccccc1 (centres undefined)		inconclusive: 100 µM [inhibitor, single point]
CC(=O)NC1=C(Nc2ccc(N(C)C)cc2)C(=O)c2ccccc2C1=O		inconclusive: 79.4 µM [inhibitor, partial curve, poor fit]
CCOc1ccc(-c2nc(CSCC(=O)N3CCN(c4cccc(C(F)(F)F)c4)CC3)c(C)o2)cc1	inactive: -15.8%	
CCc1nnc(NC(=O)CSc2nnc(-c3cc4ccccc4cc3O)n2CCOC)s1		inconclusive: 89.1 µM [inhibitor, single point]
C=CCn1c(O)c(CN2CCCCC2)c(C)c(C#N)c1=O		inconclusive: 44.7 µM [inhibitor, partial curve, poor fit]
O=C(COC(=O)Cc1ccccc1F)Nc1ccc(Cl)cn1		inconclusive: 28.2 µM [inhibitor, full curve, poor fit]
Cc1nc(C)c(-c2csc(Nc3ccc(F)cc3)n2)s1		inconclusive: 56.2 µM [inhibitor, partial curve, poor fit]
CCOC(=O)c1ccc(Oc2cn[nH]c2-c2ccc(O)cc2O)cc1	inactive: 18.5%	
O=C(/C=C/c1ccc([N+](=O)[O-])cc1)NCCc1ccccc1		inconclusive: 25.1 µM [inhibitor, full curve, poor fit]
N#Cc1ccc(NC(=O)Cn2c3[n+](c4ccc(C(F)(F)F)cc42)CCCCC3)cc1		inconclusive: 31.6 µM [inhibitor, full curve, poor fit]
C/[N+]([O-])=C\c1coc2ccccc2c1=O		inconclusive: 100 µM [inhibitor, single point]
COc1cc(/C=C2\SC(=O)N(Cc3ccc(Cl)cc3)C2=O)cc([N+](=O)[O-])c1O		inconclusive: 31.6 µM [inhibitor, partial curve, poor fit]
COc1ccc2c(C(=O)c3ccc(C)cc3)n(Cc3ccc(C(N)=O)cc3)[n+]([O-])c2c1	inactive: 22.1%	
CC(C)(C)c1cc(C(=O)N/N=C/c2ccc(-c3ccccc3[N+](=O)[O-])o2)n[nH]1		inconclusive: 79.4 µM [inhibitor, partial curve, poor fit]
O=C(Nc1cccc([N+](=O)[O-])c1)c1ccc2nc(N3C(=O)CCC3=O)sc2c1		inconclusive: 50.1 µM [inhibitor, partial curve, poor fit]

Structure (SMILES)	activity change, negative = inhibition	Potency
NC(=O)C1CC(=O)N(c2ccc(OCc3ccc(Cl)cc3)cc2)C1 (centres undefined)		inconclusive: 56.2 µM [inhibitor, partial curve, poor fit]
COc1ccc(CCN2C(=O)c3[nH]nc(-c4ccccc4O)c3C2c2cccc(OC)c2)cc1 (centres undefined)	inactive: -6.07%	
O=S(=O)(NCCc1ccccc1)c1ccc(Cl)nc1		inconclusive: 100 µM [inhibitor, single point]
O=C(c1ccccc1Cl)N(Cc1ccco1)Cc1ccco1	inactive: -5.35%	
O=C1/C(=C\c2c(NCCOCCO)nc3ccccn3c2=O)SC(=S)N1Cc1ccco1		inconclusive: 79.4 µM [inhibitor, partial curve, poor fit]
Cc1ccc(NC(=O)CC2SC3=NCCN3C2=O)cc1 (centres undefined)		inconclusive: 79.4 µM [inhibitor, partial curve, poor fit]
COc1ccc(-n2c(Cn3c(=O)sc4ccccc43)nnc2SCC(=O)N2CCCC2)cc1		inconclusive: 79.4 µM [inhibitor, partial curve, poor fit]
CCC(C)(C)n1nnnc1C(c1cccc(C#N)c1)N1CCN(c2cc(C)ccc2C)CC1 (centres undefined)	inactive: 1.39%	
O=C(O)CN1C(=O)c2cccc3cccc(c23)C1=O		inconclusive: 0.0067 µM [inhibitor, full curve, poor fit]
Cc1ccc(C(=O)CC(C(=O)O)c2cn(CCC#N)c3ccccc23)cc1 (centres undefined)		inconclusive: 50.1 µM [inhibitor, partial curve, poor fit]
Cc1ccc(C)c(Nc2nc3c(S(=O)(=O)c4ccccc4)nnn3c3ccccc23)c1	inactive: 15.9%	
COc1ccc(NC(=S)NNC(=O)C2CC2c2ccc(C)cc2)cc1 (centres undefined)	inactive: -25.5%	
C=CCn1cccc(C(=O)Nc2ccc(OC)cc2OC)c1=O		inconclusive: 44.7 µM [inhibitor, partial curve, poor fit]
CC(C)(C)c1ccc(S(=O)(=O)N(CCCN2CCOCC2)Cc2cccs2)cc1		inactive
COc1cccc(NC(=O)CC(=O)c2ccccc2)c1		inconclusive: 79.4 µM [inhibitor, single point]
CCCCCCCCCC(=O)O[C@H](CC(=O)O)C[N+](C)(C)C		inconclusive: 8.44 µM [inhibitor, partial curve, poor fit]
Cc1ccc2sc(N(Cc3cccnc3)C(=O)CCOc3ccccc3)nc2c1C		inconclusive: 100 µM [inhibitor, single point]
CCn1c(-c2csc(-c3ccccc3)n2)n[nH]c1=S		inconclusive: 70.8 µM [inhibitor, single point]
COc1ccc(C2Nc3ccccc3C(=O)N2c2ccccc2F)cc1COc1ccc(NC(C)=O)cc1 (centres undefined)	inactive: 15%	
CCNC(=S)N(CCc1c(C)[nH]c2ccccc12)Cc1cccnc1		inconclusive: 79.4 µM [inhibitor, partial curve, poor fit]
CC1(C)CC(=O)C2=C(C1)NC1=C(C(=O)c3ccccc31)C2c1ccccc1 (centres undefined)		inconclusive: 39.8 µM [inhibitor, partial curve, poor fit]
Cc1cc[n+](-c2nc3ccccc3nc2C(=C=[N-])C#N)cc1		inconclusive: 79.4 µM [inhibitor, partial curve, poor fit]

Structure (SMILES)	activity change, negative = inhibition	Potency
O=C(NNc1nc(-c2ccc(Cl)cc2)cs1)c1ccco1	inactive: -24%	
O=C(CC(Nc1ccc(F)cc1)C(=O)OCC(=O)c1cccs1)c1ccccc1 (centres undefined)		inconclusive: 50.1 µM [inhibitor, partial curve, poor fit]
COc1ccc(S(=O)(=O)N2CCOCC2)cc1NC(=O)Cc1ccc(Cl)c(Cl)c1	inactive: -11.7%	
Cc1nc2c(=O)[nH]c(=S)[nH]c2[nH]c1=O		inconclusive: 79.4 µM [inhibitor, partial curve, poor fit]
CCOc1ccc(N(CC(=O)NC2CCCCC2)S(=O)(=O)c2c(C)noc2C)cc1		inconclusive: 50.1 µM [inhibitor, partial curve, poor fit]
COc1ccccc1OCCn1c(=S)[nH]c2ccccc21		inconclusive: 112 µM [inhibitor, partial curve, poor fit]
CCOC(=O)N1CCN(C(=O)c2ccc3[nH]c(C)c(C)c3c2)CC1	inactive: -8.68%	
O=C(NN1C(=O)CSC1=S)C(=O)NN1C(=O)CSC1=S	inactive: -5.37%	
CC(CO)Nc1nc(SCc2ccccc2)nc2sc3c(c12)CCC3 (centres undefined)		inconclusive: 31.6 µM [inhibitor, full curve, poor fit]
O=C(CNC(=O)c1[nH]cnc1C(=O)NC(c1ccccc1)c1ccccc1)OCc1ccccc1		inconclusive: 39.8 µM [inhibitor, partial curve, poor fit]
COc1cc(C2NC(=O)C(C#N)=C(S)N2c2ccc(C)cc2)ccc1OC(C)C (centres undefined)		inconclusive: 50.1 µM [inhibitor, partial curve, poor fit]
CCOc1ccc(NC(=S)Nc2ccc3nsnc3c2)cc1		inconclusive: 17.8 µM [inhibitor, full curve, poor fit]
CS(=O)(=O)c1nc(-c2ccc(F)cc2)cc(C(F)(F)F)n1		inconclusive: 79.4 µM [inhibitor, partial curve, poor fit]
CNC(=O)Nc1cc(C)nn1C		inconclusive: 31.6 µM [inhibitor, full curve, poor fit]
Oc1cc2c(cc1O)[C@H]1c3ccc(O)c(O)c3OC[C@@]1(O)C2		inconclusive: 56.2 µM [inhibitor, partial curve, poor fit]
CCOC(=O)c1c(-c2ccc(C)o2)csc1NC(=S)NC(=O)c1cccs1		inconclusive: 79.4 µM [inhibitor, partial curve, poor fit]
CCOc1ccc2c(c1)-c1c(ssc1=S)C(C)(C)N2C		inconclusive: 89.1 µM [inhibitor, partial curve, poor fit]
Cc1cccc(-n2[nH]c3c4c(ccc3c2=O)C(=O)c2ccccc2C4=O)c1	inactive: 2.88%	
COC(=O)C1=C[C@@H](C(=O)OC)[C@@H]2C3=C(C(=O)[C@@]2(C)NC(=O)c2ccccc2)[C@H](C)[C@@H]2C(=O)N(Cc4ccccc4)C(=O)[C@@H]2[C@@H]3C1	inactive: 15.4%	
CN(C)c1ccc(/C=N/NC(=O)c2nonc2N)cc1[N+](=O)[O-]		inconclusive: 17.8 µM [inhibitor, full curve, poor fit]
